According to PubChem BioAssay AID488969 (Vanderbilt High Throughput Screening Facility, 2010):
Over roughly 110,000 compounds, “z-score” has its median near -0.1; the highest 2% begin near 2. Some of the results follow. The source made the active and inactive calls.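 The calls were made as follows: active = z-score in the third read window above 3 or below -3; inactive = the rest.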

These compounds were tested against Metabotropic glutamate receptor 8 (Rattus norvegicus) (UniProt P70579) (assay: rat mGluR8 modulators via GIRK flux, primary screen, cell-based, thallium flux, HTS (AID 488969)). Settings: HEK293 rat mGluR8, GIRK (G protein-gated inwardly rectifying potassium channel) thallium flux, FluoZin2; at 10 µM; stronger effect = higher value; submaximal glutamate (EC20) added with thallium.
Chain of UniProt P70579 (P70579 whole entry, looked up): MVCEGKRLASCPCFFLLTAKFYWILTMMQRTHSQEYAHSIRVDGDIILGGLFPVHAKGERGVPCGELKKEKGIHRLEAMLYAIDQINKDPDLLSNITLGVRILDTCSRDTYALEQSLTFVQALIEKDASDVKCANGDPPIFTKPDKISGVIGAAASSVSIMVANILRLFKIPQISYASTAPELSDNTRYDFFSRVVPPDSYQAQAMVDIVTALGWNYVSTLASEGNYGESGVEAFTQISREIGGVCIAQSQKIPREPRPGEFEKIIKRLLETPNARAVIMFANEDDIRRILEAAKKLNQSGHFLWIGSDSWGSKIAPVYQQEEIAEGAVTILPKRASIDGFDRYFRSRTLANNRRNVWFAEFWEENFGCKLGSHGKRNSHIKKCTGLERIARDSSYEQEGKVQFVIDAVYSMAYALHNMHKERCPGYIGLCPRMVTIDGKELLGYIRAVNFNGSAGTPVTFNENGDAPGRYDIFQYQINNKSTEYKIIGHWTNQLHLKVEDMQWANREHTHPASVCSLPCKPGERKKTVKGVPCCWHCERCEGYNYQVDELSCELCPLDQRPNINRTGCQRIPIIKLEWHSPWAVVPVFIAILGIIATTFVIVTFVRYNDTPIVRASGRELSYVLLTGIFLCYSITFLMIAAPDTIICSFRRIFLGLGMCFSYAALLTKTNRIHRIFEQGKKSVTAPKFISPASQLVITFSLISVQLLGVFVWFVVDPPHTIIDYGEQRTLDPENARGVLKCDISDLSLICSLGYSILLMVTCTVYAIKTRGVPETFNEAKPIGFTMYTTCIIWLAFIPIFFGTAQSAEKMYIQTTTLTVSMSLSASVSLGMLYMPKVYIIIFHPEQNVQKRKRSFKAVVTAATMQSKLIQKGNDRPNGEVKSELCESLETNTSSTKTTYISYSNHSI
Work on CCC(C)OC(=O)C1C(c2ccccc2)C(C(=O)O)C1c1ccccc1 (stereo not drawn) yielded a z-score of -0.178. Work on Cc1ccc(-c2nnc(CSc3nnc(COc4cccc5ccccc45)n3-c3ccccc3)o2)cc1 yielded a z-score of -0.172. In the case of Cc1ccc(-c2cc(-c3n[nH]c(=S)o3)c3ccccc3n2)cc1, the z-score is reported as active: 8.6. c1ccc(-c2csc3nnc(SCc4ccc5c(c4)OCCO5)n23)cc1 showed a z-score of -0.984. CCN1CCN(c2cc(C)c3cc(NC(=O)c4ccc5c(c4)OCO5)ccc3n2)CC1 was tested, and the z-score was -0.805. Work on COc1ccc(CNc2cccc(F)c2)cc1Br yielded a z-score of -0.144. Work on Nc1c2c(nc3ccccc13)CCC2 yielded a z-score of 1.23. O=C(Nc1c(Cl)cccc1Cl)c1cc(=O)n(Cc2ccccc2)c(=O)[nH]1 gave a z-score of 0.0378. In the case of COc1ccc(C(C)=O)cc1CSc1nc2ccccc2o1, the z-score is reported as -0.0585. With Cc1ccc(C)c(C(=O)c2c(C)nc3sccn23)c1 the z-score was active: -4.12. CCOc1ccc(N2CC(C(=O)Nc3ncccc3C)CC2=O)cc1 (stereo not drawn) gave a z-score of 0.194. In the case of O=C(/C=C/c1cccc([N+](=O)[O-])c1)NCCSCc1ccc(Cl)cc1Cl, the z-score is reported as -0.000138. Work on Cc1ccc(NC(=O)CSc2nnc(NC(=O)CN3CCOCC3)s2)cc1 yielded a z-score of -0.125. CC1CN(C(=O)CSc2nnc3c(Cl)cc(Cl)cn23)CC(C)O1 (stereo not drawn) gave a z-score of -0.362. COCCNC(=O)C(OC(=O)CC1Sc2ccccc2NC1=O)c1ccncc1 (stereo not drawn) was tested, and the z-score was -0.574. For O=C(CSc1ccccc1)NCc1cccnc1, the z-score was -0.103. CCOc1ccccc1N(C(=O)CNS(=O)(=O)c1ccccc1)C(CC)C(=O)NCc1ccco1 (stereo not drawn) gave a z-score of -0.997. For O=C(NCC1CCCO1)C1CCCN1C(=O)NC1CCCCC1 (stereo not drawn), the z-score was -0.138. O=C(NCc1cccs1)c1ccccc1C(=O)NCc1cccs1 showed a z-score of -0.214. Work on O=C(O)Cc1ccc(C(=O)c2cccs2)s1 yielded a z-score of -0.271. Work on CCCCN1CC(C(=O)NC2CCCCC2)CC1=O (stereo not drawn) yielded a z-score of 0.573. With COc1ccc2nc(NC(=O)C(NS(=O)(=O)c3cccc4nsnc34)C(C)C)sc2c1 (stereo not drawn) the z-score was 0.032. Work on Cc1ccnc2nc(C(=O)NC3=NCCS3)nn12 yielded a z-score of 0.119. For O=C1CSC(=Nc2ccccc2)N1, the z-score was -0.108. CCOc1ccc(C(=O)N(CN2CCCC2=O)c2ccccc2)cc1 was tested, and the z-score was 0.0717. O=C(Nc1nccs1)c1ccc(COc2ccc(Cl)cc2)o1 showed a z-score of -0.0268. For COc1ccc(C(=O)CN(C(=O)c2ccc(Cl)cc2)N2C(=O)c3ccccc3C2=O)cc1, the z-score was -0.126. In the case of COC(=O)Cc1c(C)c2ccc(OC(=O)c3ccco3)cc2oc1=O, the z-score is reported as 0.417. In the case of CCOc1ccc(NC(=O)CSc2nnc(CCNC(=O)c3ccc(OC)cc3)n2CC)cc1, the z-score is reported as -0.0739. In the case of Cn1nc(C(F)(F)F)c(/C=N/OC(=O)c2ccccc2)c1SCc1ccccc1Cl, the z-score is reported as 0.189. Cc1ccc(NC(=S)NCCc2ccc(F)cc2)c(C)c1 showed a z-score of -0.233. With O=C(CCCNC(=O)/C(=C\c1ccccc1F)NC(=O)c1ccccc1)OCc1ccccc1 the z-score was -0.248. Work on CCOC(=O)CSc1nnc(NCC(=O)OC)c(=O)[nH]1 yielded a z-score of -0.346. In the case of O=C(Nc1ccccn1)NC1CCCCC1, the z-score is reported as -0.444. Compound Cc1ccc(S(=O)(=O)CCc2nnc(NC(=O)C3CCCO3)s2)cc1 (stereo not drawn) has a z-score of -0.334. In the case of CCn1c2ccc(OC)cc2c2nc3ccccc3nc21, the z-score is reported as -0.632. O=C(CCSc1ccc(Cl)cc1)c1cccs1 showed a z-score of 0.538. For Cc1noc(C)c1COc1cccc(C(=O)Nc2ccc(C#N)cc2)c1, the z-score was -1.78. In the case of COc1ccc(C(=O)CSc2nnc(-c3ccc(C)cc3)o2)cc1, the z-score is reported as 2.18. O=C(c1ccco1)N1CCN=C1SCc1cccc(Cl)c1 showed a z-score of 0.782. O=C(NCCO)c1ccc2c(c1)S(=O)(=O)c1ccccc1C2=O gave a z-score of -1.34. O=[N+]([O-])c1ccc(-c2cc(-c3ccc(Cl)cc3)n[nH]2)cc1 was tested, and the z-score was -0.0692. Compound COc1cc(C(=O)Nc2nc3ccccc3[nH]2)cc(OC)c1OC has a z-score of -0.435. Cc1ccc2c(c1)CCCN2C(=O)c1ccncc1 showed a z-score of 0.255. With CCOC(=O)CCC(=O)NCc1ccc2c(c1)cc(C)n2C the z-score was -0.28. In the case of CCCOc1ccc(C(CC(=O)O)NC(=O)C23CC4CC(CC(C4)C2)C3)cc1 (stereo not drawn), the z-score is reported as -0.264. CCS(=O)(=O)NCC(c1cccnc1)N1CCN(c2ccc(F)cc2)CC1 (stereo not drawn) showed a z-score of 0.351. CCOC(=O)c1c(NC(=O)CN2CCOCC2)sc(C(=O)NC)c1C gave a z-score of -0.161. In the case of O=C(CCN1C(=O)C2C3C=CC(C3)C2C1=O)NCCc1ccccc1Cl (stereo not drawn), the z-score is reported as 0.0144. Work on CCn1c(COc2cccc3cccnc23)nnc1SCC(=O)O yielded a z-score of -0.125. For COc1cc(NC(=O)c2ccc3c(=O)n(Cc4ccco4)c(=S)[nH]c3c2)cc(OC)c1OC, the z-score was -0.49. Cc1nn(-c2ccccc2)c(C)c1/C=N/NC(=O)CSc1nnc(-c2ccccc2)n1-c1ccc(Cl)cc1 showed a z-score of 0.0544. For CCn1c(=O)c(C(=O)NNS(=O)(=O)c2ccc(Cl)cc2)c(O)c2ccccc21, the z-score was 0.416. With Cc1ccc(Cl)c2c1NC(=O)C2(O)CC(=O)c1ccccc1O (stereo not drawn) the z-score was -0.23. With C=CCCCCCCCCC(=O)NNC1=CC(=O)CC(C)(C)C1 the z-score was 0.774. Compound O=c1[nH]c(Cc2ccccc2)nc2scc(-c3ccccc3)c12 has a z-score of -0.165. Work on O=[n+]1c2c(n([O-])c3ccccc31)CCC2 yielded a z-score of -0.449. For CC(C)(C)C(=O)NC1CCN(S(=O)(=O)c2ccc(C(F)(F)F)cc2)CC1, the z-score was 0.039. In the case of CCOC(=O)c1c(NC(=S)NC(=O)/C=C/c2cccs2)sc(C)c1C, the z-score is reported as -0.183. Cc1cnc(N)c2c(=O)oc3ccccc3c12 showed a z-score of -0.0227. CC(Oc1ncnc2ccccc12)C(=O)Nc1cccc(S(=O)(=O)N2CCOCC2)c1 (stereo not drawn) showed a z-score of -0.0441. Work on COCC(=O)NCc1ccc2c(c1)OCO2 yielded a z-score of 1.71. COc1cc(Nc2ccccc2Cl)c([N+](=O)[O-])nc1[N+](=O)[O-] gave a z-score of -0.191. Work on CC(C)OC(=O)CSc1nnc(Cc2ccccc2)n1Cc1ccco1 yielded a z-score of -0.4. For Cc1ccc(NC(=O)Cn2cnc3sc(C(=O)NCCN(C)C)c(C)c3c2=O)cc1Cl, the z-score was -0.225. Work on Cc1ccc(-c2cc(NC(=O)CCl)n(-c3ccccc3)n2)cc1 yielded a z-score of 0.695. Work on NC(=O)NOCc1ncc(C(F)(F)F)cc1Cl yielded a z-score of 0.153. In the case of COc1ccc(OC)c(N(CC(=O)N2CCc3ccccc3C2)S(C)(=O)=O)c1, the z-score is reported as -0.145. For CCOC(=O)c1c(/N=C/c2cccc(C)c2O)sc2c1CCN(C)C2, the z-score was -0.105. Compound COC(=O)c1ccccc1NC(=O)CSc1nc2ccccc2c(=O)[nH]1 has a z-score of -0.159. COC(=O)C1=C(C)NC(=O)NC1c1ccsc1 (stereo not drawn) was tested, and the z-score was -0.413. For O=C(Nc1ccc(N2CCN(C(=O)c3ccccc3)CC2)cc1)c1ccc2c(c1)OCO2, the z-score was 0.351. For CN1CCN(CCC(=O)Nc2ccc3c(c2)OCO3)CC1, the z-score was 0.213. CN(CC(=O)Nc1ccccc1Cl)C(=O)COC(=O)CNC(=O)c1ccc(Br)o1 gave a z-score of 0.0164. Work on Cc1ccc(NS(=O)(=O)c2ccc(NC(=O)c3cccc(NC(=O)C(C)C)c3)cc2)cc1 yielded a z-score of -0.312. O=C(Nc1ccccc1)c1nnn(Cc2ccccc2)c1NC(=O)C(F)(F)F was tested, and the z-score was -0.0815. For Nn1c(SCCOc2ccccc2)nnc1-c1cccnc1, the z-score was 0.653. CC(C)CNC(=O)c1cccc(NC(=O)CSc2ccccc2)c1 gave a z-score of -0.745. O=C(Nc1ccc(N2CCN(C(=O)c3ccco3)CC2)cc1)c1cccc(F)c1 gave a z-score of 0.81. O=C(Cc1ccccc1F)Nc1ccc(Cl)nc1 gave a z-score of 0.217. Cc1cc(N(C(=O)c2ccco2)C(C(=O)NC2CCCCC2)c2ccccc2)ccc1-n1cnnn1 (stereo not drawn) showed a z-score of -0.0693. Work on COc1cccc(-n2nnnc2SCC(=O)Nc2cccc(C)n2)c1 yielded a z-score of -0.175. Work on O=C(NCc1ccc(Cl)cc1)c1ccc(OCC2CCCO2)cc1 (stereo not drawn) yielded a z-score of 1.72. With Cc1cccc(NC(=S)NNC(=O)c2ccccc2Br)c1 the z-score was 0.847. With CC1Cc2ccccc2N1C(=O)CSc1nnc(-c2ccccc2)c(-c2ccccc2)n1 (stereo not drawn) the z-score was -0.141. In the case of COc1ccccc1N1CCN(C(c2ccc(Cl)cc2)c2nnnn2C(C)(C)C)CC1 (stereo not drawn), the z-score is reported as -0.375. Cc1ccc2nc(NC(=O)c3cccc(-c4cc5ccccc5oc4=O)c3)sc2c1 gave a z-score of -0.18. Compound CC(=O)N1CCN(C2=NC(=O)C(=C3CCCCC3)S2)CC1 has a z-score of 0.29. Compound COC(=O)Nc1ccc(S(=O)(=O)N(CCO)CCO)cc1 has a z-score of 0.562. In the case of CC(=O)N1CCN(Cc2nc3cc(NS(C)(=O)=O)ccc3n2C)CC1, the z-score is reported as -0.158. Cc1nc(SCC(=O)Nc2ccccc2)c2oc3ccccc3c2n1 showed a z-score of 0.0589. For Cn1c(SCC(=O)Nc2ccc(N3CCOCC3)cc2)nnc1-c1ccccc1, the z-score was 0.0728. COc1cc(S(=O)(=O)Nc2ccc(C)cc2)ccc1NC(=O)c1ccncc1 was tested, and the z-score was 0.0477. For COc1cc(N=CC2=C(O)c3ccccc3C2=O)cc(OC)c1, the z-score was -0.168. In the case of CCCCNC(=O)c1onc(CSc2ccccc2F)c1C(=O)O, the z-score is reported as -0.281. In the case of O=[N+]([O-])c1ccccc1Oc1ccccc1Cl, the z-score is reported as -0.0419. CCOC(=O)c1c(C)[nH]c(C(=O)CSc2ccc(Cl)cc2)c1C gave a z-score of 0.24. Compound CC(C)CCNC(=O)NC(=O)Cn1cc(C(F)(F)F)ccc1=O has a z-score of -0.327. CC(C)CN1C(=S)SC(C)(C)C1n1oc(=O)n(-c2ccccc2)c1=O (stereo not drawn) gave a z-score of -0.0885. COc1ccc(S(=O)(=O)N2CCc3ccccc3C2)cc1OC gave a z-score of -0.577. For COc1ccc(NC(=O)Cc2c(O)c3ccccc3[nH]c2=O)cc1, the z-score was -0.337. In the case of CCNC(=O)OCC12CC3CC(CC(C3)C1)C2, the z-score is reported as -0.0256. O=C(O)CCN1C(=O)c2ccccc2C1=O gave a z-score of 0.398. COc1cc(C(=S)N2CCCC2)cc(OC)c1O was tested, and the z-score was 0.304. In the case of Clc1ccc(OCCn2cnc3ccccc32)cc1, the z-score is reported as -0.548. For COc1ccccc1C(=O)Nc1nc(-c2cccs2)c(NC(C)=O)s1, the z-score was -0.217. Work on CCN1CCS/C1=C/C=C/C1=[N+](CC)CCS1 yielded a z-score of -0.00185. CCN(CC)C(=O)CSc1nnc(NC(=O)CCc2ccccc2)s1 gave a z-score of -0.515. CCCc1cc(C(=O)Nc2cccnc2)no1 showed a z-score of -0.469. O=C(NCc1ccco1)/C(=C/c1ccco1)NC(=O)c1ccc(Br)o1 gave a z-score of -0.14. Compound O=C(Nc1ccccc1-c1ccccc1)NC1CCN(C(=O)N2CCOCC2)CC1 has a z-score of 0.316. In the case of CC(=O)c1ccc(N2CCN(C(=O)C3(S(=O)(=O)c4ccc(Cl)cc4)CC3)CC2)cc1, the z-score is reported as -0.122. Work on Cc1cc(Br)cn2ccnc12 yielded a z-score of 0.171.
